The source of these data is article PMC9911399, “Two distinct binding modes provide the RNA-binding protein RbFox with extraordinary sequence specificity”.

The labels stand for the following.
T1: RBFOX1 RRM RbFoxmut (Fox-RRM*) (Homo sapiens, UniProt Q9NWB1 109-208, R118D;E147R;N151S;E152T)
T1 sequence: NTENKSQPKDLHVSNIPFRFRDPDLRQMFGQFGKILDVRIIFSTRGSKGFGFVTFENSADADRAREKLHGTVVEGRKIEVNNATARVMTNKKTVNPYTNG

B1: AGAGGAG (DNA:RNA)
RNA: GGGAGACCGGAAUUCAGAUUGUCCAGAGGAGUUAAAUCCCGUCGUAGCCACCA
DNA 1: CAATCTGAATTCCGGTCTCCC
DNA 2: TGGTGGCTACGACGGGATT
B2: ACAGCCA (DNA:RNA)
RNA: B1 RNA with G26C, G29C, A30C, G31A
DNA 1: CAATCTGAATTCCGGTCTCCC
DNA 2: TGGTGGCTACGACGGGATT
B3: GGCCAUC (DNA:RNA)
RNA: B1 RNA with A25G, A27C, G28C, G29A, A30U, G31C
DNA 1: CAATCTGAATTCCGGTCTCCC
DNA 2: TGGTGGCTACGACGGGATT
B4: GACGGCA (DNA:RNA)
RNA: B1 RNA with A25G, G26A, A27C, A30C, G31A
DNA 1: CAATCTGAATTCCGGTCTCCC
DNA 2: TGGTGGCTACGACGGGATT
B5: UUAUUAU (DNA:RNA)
RNA: B1 RNA with A25U, G26U, G28U, G29U, G31U
DNA 1: CAATCTGAATTCCGGTCTCCC
DNA 2: TGGTGGCTACGACGGGATT
B6: AGAGUGA (DNA:RNA)
RNA: B1 RNA with G29U, A30G, G31A
DNA 1: CAATCTGAATTCCGGTCTCCC
DNA 2: TGGTGGCTACGACGGGATT
B7: CGUAACA (DNA:RNA)
RNA: B1 RNA with A25C, A27U, G28A, G29A, A30C, G31A
DNA 1: CAATCTGAATTCCGGTCTCCC
DNA 2: TGGTGGCTACGACGGGATT
B8: GAGUGUU (DNA:RNA)
RNA: B1 RNA with A25G, G26A, A27G, G28U, A30U, G31U
DNA 1: CAATCTGAATTCCGGTCTCCC
DNA 2: TGGTGGCTACGACGGGATT
B9: UGGGAUU (DNA:RNA)
RNA: B1 RNA with A25U, A27G, G29A, A30U, G31U
DNA 1: CAATCTGAATTCCGGTCTCCC
DNA 2: TGGTGGCTACGACGGGATT
B10: CUUCCUA (DNA:RNA)
RNA: GGGAGACCGGAAUUCAGAUUGUCCCUUCCUAUUAAAUCCCGUCGUAGCCACCA
DNA 1: CAATCTGAATTCCGGTCTCCC
DNA 2: TGGTGGCTACGACGGGATT
B11: AAAAACG (DNA:RNA)
RNA: B1 RNA with G26A, G28A, G29A, A30C
DNA 1: CAATCTGAATTCCGGTCTCCC
DNA 2: TGGTGGCTACGACGGGATT
B12: GGUUAAG (DNA:RNA)
RNA: B1 RNA with A25G, A27U, G28U, G29A
DNA 1: CAATCTGAATTCCGGTCTCCC
DNA 2: TGGTGGCTACGACGGGATT
B13: AUACAGC (DNA:RNA)
RNA: B1 RNA with G26U, G28C, G29A, A30G, G31C
DNA 1: CAATCTGAATTCCGGTCTCCC
DNA 2: TGGTGGCTACGACGGGATT
B14: ACCAUUC (DNA:RNA)
RNA: B1 RNA with G26C, A27C, G28A, G29U, A30U, G31C
DNA 1: CAATCTGAATTCCGGTCTCCC
DNA 2: TGGTGGCTACGACGGGATT
B15: AUUCUGU (DNA:RNA)
RNA: B10 RNA with C25A, C29U, U30G, A31U
DNA 1: CAATCTGAATTCCGGTCTCCC
DNA 2: TGGTGGCTACGACGGGATT
B16: GCUAAUC (DNA:RNA)
RNA: B10 RNA with C25G, U26C, C28A, C29A, A31C
DNA 1: CAATCTGAATTCCGGTCTCCC
DNA 2: TGGTGGCTACGACGGGATT
B17: UUGAGCG (DNA:RNA)
RNA: B1 RNA with A25U, G26U, A27G, G28A, A30C
DNA 1: CAATCTGAATTCCGGTCTCCC
DNA 2: TGGTGGCTACGACGGGATT
B18: GGAAGGA (DNA:RNA)
RNA: B1 RNA with A25G, G28A, A30G, G31A
DNA 1: CAATCTGAATTCCGGTCTCCC
DNA 2: TGGTGGCTACGACGGGATT
B19: GCUCGUA (DNA:RNA)
RNA: B10 RNA with C25G, U26C, C29G
DNA 1: CAATCTGAATTCCGGTCTCCC
DNA 2: TGGTGGCTACGACGGGATT
B20: AUCCCUA (DNA:RNA)
RNA: B10 RNA with C25A, U27C
DNA 1: CAATCTGAATTCCGGTCTCCC
DNA 2: TGGTGGCTACGACGGGATT
B21: UCCAGAA (DNA:RNA)
RNA: B1 RNA with A25U, G26C, A27C, G28A, G31A
DNA 1: CAATCTGAATTCCGGTCTCCC
DNA 2: TGGTGGCTACGACGGGATT
B22: UAAGCCC (DNA:RNA)
RNA: B1 RNA with A25U, G26A, G29C, A30C, G31C
DNA 1: CAATCTGAATTCCGGTCTCCC
DNA 2: TGGTGGCTACGACGGGATT
B23: UCGUCUU (DNA:RNA)
RNA: B10 RNA with C25U, U26C, U27G, C28U, A31U
DNA 1: CAATCTGAATTCCGGTCTCCC
DNA 2: TGGTGGCTACGACGGGATT
B24: UUUUACC (DNA:RNA)
RNA: B10 RNA with C25U, C28U, C29A, U30C, A31C
DNA 1: CAATCTGAATTCCGGTCTCCC
DNA 2: TGGTGGCTACGACGGGATT
B25: UGCCGUA (DNA:RNA)
RNA: B10 RNA with C25U, U26G, U27C, C29G
DNA 1: CAATCTGAATTCCGGTCTCCC
DNA 2: TGGTGGCTACGACGGGATT
B26: CCGCACC (DNA:RNA)
RNA: B10 RNA with U26C, U27G, C29A, U30C, A31C
DNA 1: CAATCTGAATTCCGGTCTCCC
DNA 2: TGGTGGCTACGACGGGATT
B27: CUUAUUG (DNA:RNA)
RNA: B10 RNA with C28A, C29U, A31G
DNA 1: CAATCTGAATTCCGGTCTCCC
DNA 2: TGGTGGCTACGACGGGATT
B28: AUGAUCA (DNA:RNA)
RNA: B10 RNA with C25A, U27G, C28A, C29U, U30C
DNA 1: CAATCTGAATTCCGGTCTCCC
DNA 2: TGGTGGCTACGACGGGATT
B29: CUCCUCU (DNA:RNA)
RNA: B10 RNA with U27C, C29U, U30C, A31U
DNA 1: CAATCTGAATTCCGGTCTCCC
DNA 2: TGGTGGCTACGACGGGATT
B30: UCCACCC (DNA:RNA)
RNA: B10 RNA with C25U, U26C, U27C, C28A, U30C, A31C
DNA 1: CAATCTGAATTCCGGTCTCCC
DNA 2: TGGTGGCTACGACGGGATT
B31: UUUGCGU (DNA:RNA)
RNA: B10 RNA with C25U, C28G, U30G, A31U
DNA 1: CAATCTGAATTCCGGTCTCCC
DNA 2: TGGTGGCTACGACGGGATT

Positions count from the first letter of the chain named. Some of the results follow.

The assay has as its target T1, RBFOX1 RRM RbFoxmut (Fox-RRM*). The experiment in a line: EMSA; HiTS-Eq, 1 nM pool, 10 min; buffer printed only for the single-RNA assays: 10 mM Tris pH 7.5, 150 mM NaCl, 3.4 mM EDTA, 0.001% NP-40, 30 C. The note with it: tags: His6 N-terminal (pET28a); label: 5' 32P. The essentials: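 Purified wild-type or mutant RbFox RRM at increasing concentrations was equilibrated with 1 nM of 5′-radiolabelled RNA carrying 7 randomized nucleotides for 10 min in 50 µL. Unbound RNA was separated by 8% native PAGE and sequenced. Relative association constants came from read-count changes of each RNA species compared with the control reaction, normalised to the cognate motif.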
(In general: A gel shift assay detects complexes by their altered migration in electrophoresis.)
Consider B1, for which the binding signal was 0.116 KA relative to UGCAUGU. The same measure for B2: 0.0917 KA relative to UGCAUGU; for B3: 0.125 KA relative to UGCAUGU. The same measure for B4: 0.149 KA relative to UGCAUGU; for B5: 0.116 KA relative to UGCAUGU; for B6: 0.11 KA relative to UGCAUGU. The same measure for B7: 0.101 KA relative to UGCAUGU; for B8: 0.147 KA relative to UGCAUGU; for B9: 0.0869 KA relative to UGCAUGU. For B10, the binding signal is 0.102 KA relative to UGCAUGU. On to B11, for which the binding signal was 0.108 KA relative to UGCAUGU. To B12 belongs 0.0741 KA relative to UGCAUGU; to B13, 0.0938 KA relative to UGCAUGU. The same measure for B14: 0.0618 KA relative to UGCAUGU; for B15: 0.125 KA relative to UGCAUGU; for B16: 0.0635 KA relative to UGCAUGU.

Consider B17, for which the binding signal is 0.189 KA relative to UGCAUGU. For B18, the binding signal was 0.0476 KA relative to UGCAUGU.

In the case of B19, the binding signal is 0.135 KA relative to UGCAUGU. To B20 belongs 0.113 KA relative to UGCAUGU; to B21, 0.0979 KA relative to UGCAUGU; to B22, 0.0727 KA relative to UGCAUGU.

Consider B23, for which the binding signal was 0.0605 KA relative to UGCAUGU. B24: the binding signal was 0.0856 KA relative to UGCAUGU.

Turning to B25, the binding signal was 0.131 KA relative to UGCAUGU. For the molecule B26, the binding signal is 0.0967 KA relative to UGCAUGU. For B27, the binding signal is 0.134 KA relative to UGCAUGU. In the case of B28, the binding signal is 0.0928 KA relative to UGCAUGU. Take B29: the binding signal is 0.11 KA relative to UGCAUGU. To B30 belongs 0.0806 KA relative to UGCAUGU; to B31, 0.128 KA relative to UGCAUGU.
